Measurements reported in ChEMBL document CHEMBL1201862, “PubChem BioAssay data set” (2004).
Where “and” joins values, the source holds several entries; their conditions need not be identical. Equal values may be shown once.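 Briefly, cells in 96-well plates were exposed to five compound concentrations for 48 h, and endpoints were estimated by linear interpolation. Here, GI50 denotes the concentration required for 50% inhibition of growth.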 Calls of active or inactive are those of the source. Rule as the data show it: active = GI50 up to about 1.1 µM and inactive = higher.

tested on: NCI-H322M; experiment: growth of human tumour cells (NCI), 48 h

Question: For `O=C(Cn1c2ccc(Br)cc2c2nc3ccccc3nc21)NC1CCCCC1`, which GI50 is on record?
Answer: inactive: > 100 µM

Question: With `Cc1nc(O)nc(N(CCO)/N=C/c2ccc(Cl)cc2)c1C(=O)Nc1ccc(Cl)cc1` as the compound, how does the GI50 read?
Answer: inactive: > 100 µM

Question: `COC(=O)c1cc2c3c(ccc2[nH]1)N(C(=O)c1cc2c4c(ccc2[nH]1)N(C(=O)c1cc2c5c(ccc2[nH]1)N(C(N)=O)CC5)CC4)CC3` was tested. Which GI50 did it give?
Answer: inactive: > 27.5 µM

Question: Which GI50 does the source give for `CSc1nc(Cl)c2c(n1)Sc1nc3ccccc3n1N=C2` here?
Answer: inactive: > 100 µM

Question: Which GI50 does the source give for `COc1cc(OC)cc(Oc2nc3ccccc3nc2C(F)(F)F)c1` here?
Answer: inactive: > 100 µM

Question: Which GI50 does the source give for `NC(=O)N/N=C1/CCCC/C1=C\c1ccccc1` here?
Answer: inactive: > 100 µM

Question: `Nc1nc(N)c2nn(-c3ccc(C(=O)O)cc3)nc2n1` was tested. Which GI50 did it give?
Answer: inactive: > 100 µM

Question: For `C/C(=N\NC(=S)NC(C)C)c1nc2cccnc2[nH]1`, which GI50 is on record?
Answer: inactive: 31 µM

Question: With `Cc1ccccc1C(=O)N/N=C/c1ccc(Sc2nccn2C)c([N+](=O)[O-])c1` as the compound, how does the GI50 read?
Answer: inactive: > 100 µM

Question: `c1ccc(NCCSc2nc3ccccc3s2)cc1` was tested. Which GI50 did it give?
Answer: inactive: 51.5 µM

Question: How did the GI50 turn out when `NNc1nnc(-c2nnc(NN)o2)o1` was run?
Answer: inactive: > 10 µM

Question: `CCOC(=O)Cn1c(=O)c2nc(SC)sc2n(-c2ccccc2)c1=S` was tested. Which GI50 did it give?
Answer: inactive: 14.3 µM

Question: How did the GI50 turn out when `COc1ccc(C(=O)/C(Br)=C/C(=O)O)cc1` was run?
Answer: inactive: 40.1 µM

Question: `CSc1nc2c(c(N(C)C)n1)C=Nn1c(nc3ccccc31)S2` was tested. Which GI50 did it give?
Answer: inactive: 98.9 µM

Question: With `O=C1OC(CC(=O)c2ccc(Cl)c(Cl)c2)C(Cl)=C1Cl` (configuration not stated) as the compound, how does the GI50 read?
Answer: inactive: > 100 µM

Question: For `CN1C(C)(C)CC(=O)C(Br)C1(C)C` (configuration not stated), which GI50 is on record?
Answer: inactive: > 100 µM

Question: For `CCC12C=CCN3CCC4(c5cc(C(c6ccc(OC)cc6)C6Cc7ccccc7N6)c(OC)cc5N(C)C4C(O)(C(=O)OC)C1O)C32` (configuration not stated), which GI50 is on record?
Answer: inactive: 30.8 µM

Question: With `O=C1NC2C(CCO)CC=C[C@H]2c2cc3c(cc21)OCO3` (some centres not stated) as the compound, how does the GI50 read?
Answer: inactive: > 100 µM

Question: For `CC(=O)OC1OC(C2c3cccc(O)c3C(=O)c3c(O)cc(CO)cc32)C(O)C(O)C1O` (configuration not stated), which GI50 is on record?
Answer: inactive: 5.62 µM and inactive: 4.91 µM

Question: How did the GI50 turn out when `CSc1nc(-c2ccccc2)nc(N2CCOCC2)[s+]1` was run?
Answer: inactive: > 100 µM

Question: `COc1ccc(Nc2nc3ccc(C(F)(F)F)cc3nc2C(=O)O)cc1OC` was tested. Which GI50 did it give?
Answer: inactive: 36.8 µM

Question: `COc1cc(Cl)c2c3c(c(C(C)=O)oc13)CCC2` was tested. Which GI50 did it give?
Answer: inactive: > 100 µM

Question: With `CC1=C(C(=O)Nc2ccccc2C)C(c2ccc(Cl)cc2)C(C(=O)Nc2ccccc2C)=C(C)N1` as the compound, how does the GI50 read?
Answer: inactive: > 100 µM

Question: How did the GI50 turn out when `COc1cc(C2C3=C(COC3=O)Oc3cc4c(cc32)OCO4)ccc1O` (configuration not stated) was run?
Answer: active: 0.579 µM

Question: How did the GI50 turn out when `CCN(CC)CCCn1c(=O)c2ccccc2n2c3c(=O)n(C)c(=O)n(C)c3nc12` was run?
Answer: inactive: 6.44 µM

Question: With `COc1ccc(-c2cc(C3CC3)nc(SCC(=O)O)c2C#N)cc1` as the compound, how does the GI50 read?
Answer: inactive: > 100 µM

Question: For `COC(=O)c1ccc(NCc2cc(O)ccc2O)cc1O`, which GI50 is on record?
Answer: inactive: 13.5 µM

Question: `c1cc(CSP234N5CCN2CCN3CCN4CC5)cc(CSP234N5CCN2CCN3CCN4CC5)c1` was tested. Which GI50 did it give?
Answer: inactive: 29.9 µM

Question: With `COC(=O)C1OC(O[C@H]2CC[C@]3(C)[C@H]4CC=C5[C@@H]6CC(C)(C)CC[C@]6(C(=O)OC6OCC(O)C(O)C6OC6OC(C)C(OC7OCC(O)C(O)C7O)C(OC7OCC(O)(CO)C7O)C6O)[C@H](O)C[C@@]5(C)[C@]4(C)CC[C@H]3C2(C)C)C(O)C(O)C1O` (some centres not stated) as the compound, how does the GI50 read?
Answer: inactive: 2.39 µM

Question: How did the GI50 turn out when `O=C1C2C(C(=O)N1OS(=O)(=O)c1ccccc1)N(Cc1ccccc1)C(=O)N2Cc1ccccc1` (configuration not stated) was run?
Answer: inactive: > 100 µM

Question: `O=c1cccccc1NCCNc1cccccc1=O` was tested. Which GI50 did it give?
Answer: inactive: > 100 µM

Question: For `COC(=O)CNCC1OC2OC(C)(C)OC2C1N=[N+]=[N-]` (configuration not stated), which GI50 is on record?
Answer: inactive: > 100 µM

Question: `CCOC(=O)c1sc2c(sc(=O)n2-c2ccccc2)c1O` was tested. Which GI50 did it give?
Answer: inactive: > 100 µM

Question: How did the GI50 turn out when `CCOC(=O)c1c(NC(=O)Nc2ccccc2)c(C(N)=O)c2n1CCCCC2` was run?
Answer: inactive: > 100 µM

Question: `C/C(Nc1ccc(Cl)cc1Cl)=C1/CCOC1=O` was tested. Which GI50 did it give?
Answer: inactive: > 100 µM

Question: With `O=[N+]([O-])c1ccc(/C=C/c2ccc(/N=N/c3ccc(/C=C/c4ccc([N+](=O)[O-])cc4S(=O)(=O)O)c(S(=O)(=O)O)c3)cc2S(=O)(=O)O)c(S(=O)(=O)O)c1` as the compound, how does the GI50 read?
Answer: inactive: > 83.9 µM

Question: `CC1CC(C)CC(C)C(O)/C(C#N)=C/C=C/CC(C2CCCC2C(=O)O)OC(=O)CC(O)C(C)C1` (configuration not stated) was tested. Which GI50 did it give?
Answer: active: 0.0228 µM

Question: How did the GI50 turn out when `C=CCOC(=O)N1[C@H]2C#C/C=C\C#C[C@]3(O)C(=O)C[C@H](C)[C@]24O[C@]43C2=CC(=O)C=CC21OC` (some centres not stated) was run?
Answer: inactive: 23.1 µM

Question: With `O=C1Nc2ccccc2/C1=N/Nc1ccccc1Cl` as the compound, how does the GI50 read?
Answer: inactive: 44.1 µM

Question: For `CC(CCC=O)CCOCc1ccccc1` (configuration not stated), which GI50 is on record?
Answer: inactive: > 100 µM

Question: For `CC(C)C(/C=C/c1ccccc1)=N\NC(=S)NN`, which GI50 is on record?
Answer: inactive: 58.9 µM

Question: With `C=CCOC1=C(OC(C)=O)C(C2COC(C)(C)O2)OC1=O` (configuration not stated) as the compound, how does the GI50 read?
Answer: inactive: 66.2 µM

Question: Which GI50 does the source give for `NNC(=S)NCCNC(=S)NN` here?
Answer: inactive: > 100 µM

Question: Which GI50 does the source give for `Cc1ccc(/N=N/NCCCCN)cc1` here?
Answer: inactive: > 100 µM

Question: Which GI50 does the source give for `CCOc1ccc2c(c1)c(CC(=O)O)cn2C` here?
Answer: inactive: > 100 µM

Question: Which GI50 does the source give for `Cc1cn([C@@H]2C[C@H](CO)[C@@H](O)C2)c(=O)[nH]c1=O` here?
Answer: inactive: > 100 µM

Question: `COCN1COCN/C1=N\C#N` was tested. Which GI50 did it give?
Answer: inactive: > 100 µM
